In PubChem BioAssay (Tox21):
Inconclusive results, whose numbers are uncertain, are shown with a selection of clear calls. Potencies of inconclusive entries are doubtful fits and often do not repeat. Active and inactive are the calls of the source. Calls follow the shape of the dose curve; as a rule, active = well fitted cell-killing curve with a large enough effect in the repeat runs; inconclusive = weak or mixed curves, or effect the other way; inactive = no such curve, though single readings can be large or run the other way.

assay: qHTS assay to identify small molecule agonists of the RXR signaling pathway - cell viability counter screen (AID 1159529); details: RXR-alpha-bla HEK293T viability, CellTiter-Glo, 16 h; series mostly up to 76.8 µM; also: nearly all actives have a fitted effect of over 50% in size
Procedure, shortened: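 Cell viability is measured by CellTiter-Glo luminescence, 30 min at room temperature, in wells already read for beta-lactamase. Engineered HEK 293T cells (RXR-alpha-UAS-bla) are dosed 16 hr at 37 C. Tetraoctyl ammonium bromide serves as positive control.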
Potency is read from the fitted curve at half-maximal effect; tags tell the direction and shape of the fitted curve.

SMILES	Potency
CCCCOc1ccc(OCCCN2CCOCC2)cc1	inactive
CC(C)(O)c1ccc(CNC(=O)c2cccnc2Oc2ccc3nonc3c2)cc1	inconclusive: 15.5 µM [cytotoxic, partial curve, poor fit]
CCC(C)(C)OC	active: 48.8 µM
C/C=C(/C(=C/C)c1ccc(O)cc1)c1ccc(O)cc1	inconclusive: 23.9 µM [cytotoxic, single point]
C=CC(=O)OCCCCCC	inconclusive: 0.0014 µM [cytotoxic, partial curve, poor fit]
CCC(=O)C1CC(C(C)C)CC=C1C (stereo not drawn)	inactive
Oc1ccc(Sc2ccc(O)cc2)cc1	inconclusive: 25.7 µM [rising, full curve, poor fit]
O=C(/C=C/c1ccc(O)c(O)c1)O[C@@H]1C[C@@](OC(=O)/C=C/c2ccc(O)c(O)c2)(C(=O)O)C[C@@H](O)[C@@H]1O	inactive
